Assay results taken from article PMC4336329 (PLoS ONE, 2015).
Hit rate of the full screen: of about 310,000 compounds, about 2,200 (0.71%) showed an effect of 50% or more. Effects have a minus sign here. The list shows a part of the results.

Biological target: human ether-à-go-go-related gene (hERG) potassium channel (human, UniProt Q12809)
Test: primary screen, population patch clamp on CHO cells stably expressing hERG

Chain of human ether-à-go-go-related gene (hERG) potassium channel (Q12809 whole entry, looked up): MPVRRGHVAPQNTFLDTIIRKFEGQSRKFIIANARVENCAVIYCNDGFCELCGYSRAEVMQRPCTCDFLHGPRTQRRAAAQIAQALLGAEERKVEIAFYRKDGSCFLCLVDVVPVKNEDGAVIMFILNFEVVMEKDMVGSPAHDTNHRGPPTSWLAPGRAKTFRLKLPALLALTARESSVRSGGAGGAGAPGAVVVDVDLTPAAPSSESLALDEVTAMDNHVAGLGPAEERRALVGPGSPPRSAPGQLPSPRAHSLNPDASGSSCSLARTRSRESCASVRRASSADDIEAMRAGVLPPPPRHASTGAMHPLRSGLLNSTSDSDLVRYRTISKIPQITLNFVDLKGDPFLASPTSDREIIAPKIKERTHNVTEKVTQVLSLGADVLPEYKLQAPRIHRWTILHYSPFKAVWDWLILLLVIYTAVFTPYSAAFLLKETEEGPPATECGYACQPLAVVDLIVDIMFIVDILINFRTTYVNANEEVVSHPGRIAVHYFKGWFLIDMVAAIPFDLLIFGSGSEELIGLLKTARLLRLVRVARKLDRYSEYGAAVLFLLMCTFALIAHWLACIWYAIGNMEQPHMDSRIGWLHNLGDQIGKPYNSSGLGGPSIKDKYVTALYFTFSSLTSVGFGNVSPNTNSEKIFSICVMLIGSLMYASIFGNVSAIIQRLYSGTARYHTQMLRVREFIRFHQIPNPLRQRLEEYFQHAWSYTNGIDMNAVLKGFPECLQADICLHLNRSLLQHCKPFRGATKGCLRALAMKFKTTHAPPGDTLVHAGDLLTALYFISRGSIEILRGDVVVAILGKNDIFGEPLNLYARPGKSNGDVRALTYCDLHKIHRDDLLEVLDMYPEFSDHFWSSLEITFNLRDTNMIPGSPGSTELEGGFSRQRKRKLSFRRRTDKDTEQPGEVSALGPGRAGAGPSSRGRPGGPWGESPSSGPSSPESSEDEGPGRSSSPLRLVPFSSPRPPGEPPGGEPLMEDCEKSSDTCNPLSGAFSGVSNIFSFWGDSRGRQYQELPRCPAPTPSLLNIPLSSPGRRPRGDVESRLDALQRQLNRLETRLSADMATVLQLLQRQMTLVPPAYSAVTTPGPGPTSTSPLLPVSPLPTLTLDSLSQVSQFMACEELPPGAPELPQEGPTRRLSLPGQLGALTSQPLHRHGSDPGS

Row | Structure (SMILES) | hERG current change (%, negative = inhibition) at 1uM
1 | CC(C)(C)c1ccc(S(=O)(=O)NCC(=O)N2CCCC2)cc1 | 9.26%
2 | Cc1cc(-c2ccccc2)nc(N(C)NC(=O)c2ccc(Cl)cc2)c1S(C)(=O)=O | -1.97%
3 | O=S(=O)(c1ccc(F)cc1)c1nc(-c2ccco2)oc1Nc1ccccc1 | 2.1%
4 | c1ccc2oc(C3=NNC(=NC4CC4)SC3)cc2c1 | -19.1%
5 | c1ccc(Cc2nn3c(Cn4cnc5ccccc54)nnc3s2)cc1 | 5.69%
6 | NC(=O)c1ccccc1NCC(=O)c1ccc(F)cc1 | -6.14%
7 | Cc1ccccc1C(=O)c1cccn1CC(=O)NCc1ccc(Cl)cc1 | 12.4%
8 | CC1=C(C)CC(C(=O)NCC(=O)c2ccccc2)C(C(=O)O)C1 (stereo not shown) | 5.67%
9 | CN(C)c1ccc(N/C=C/C(=O)c2ccccc2)cc1 | 9.42%
10 | CCN(c1ccc(OC)cc1)S(=O)(=O)c1csc(C(N)=O)c1 | 14%
11 | CCOc1ccc2c(c1)ncn2Cc1ccccc1 | 3.15%
12 | O=C(c1ccco1)c1cc2c(ccc3ccccc32)oc1=O | 15.1%
13 | COc1ccc(OC)c(NC(=O)CNC(c2ccccc2)c2ccccc2)c1 | 12.8%
14 | COc1ccc(NC(=O)c2nn(C)c(=O)c3ccccc23)cc1S(=O)(=O)Nc1ccccc1Cl | 13%
15 | Cn1c(=O)c2c(nc(N3CCOCC3)n2CCSc2ncccn2)n(C)c1=O | 4.67%
16 | CCN(CC)C(=O)N1CCN(C(=O)N2CCOCC2)CC1 | 8.81%
17 | O=C1CCC(C(=O)O)(c2ccccc2)C1 (stereo not shown) | 12.2%
18 | COC(=O)c1cc(Br)c(=O)n(CC(C)C)c1 | 12.4%
19 | Cc1ccc(NC(=O)c2ccc([N+](=O)[O-])o2)cc1C | 10.5%
20 | Cc1cc(/C=N/Nc2ncnc(N)c2[N+](=O)[O-])c(C)n1-c1ccccc1 | 9.92%

Row | Structure (SMILES) | hERG current change (%, negative = inhibition) at 1uM
21 | COc1ccccc1N(C)S(=O)(=O)c1ccc(C(=O)NCc2ccc3c(c2)OCO3)cc1 | 7.93%
22 | CC(C)(C)NC(=O)C(c1ccc(F)cc1)N(Cc1ccco1)C(=O)CCC(=O)Nc1nccs1 (stereo not shown) | 8.86%
23 | Cc1ccc(SCc2nc3ccccc3n2CC(=O)Nc2c(C)cccc2C)cc1 | 6.88%
24 | S=C(NCc1ccc2c(c1)OCO2)NCc1ccc2c(c1)OCO2 | -1.56%
25 | O=C(Cn1nc(-c2ccc(F)cc2)ccc1=O)Nc1ccc2c(c1)OCCO2 | 12.8%
26 | O=C(CN1CCCc2ccccc21)NCc1ccccc1Cl | 14%
27 | O=C(Cc1ccccc1F)Nc1cc(S(=O)(=O)N2CCCC2)ccc1Cl | 7.57%
28 | CC(OC(=O)c1ccccc1CCc1ccccc1)C(N)=O (stereo not shown) | 9.08%
29 | O=C(O)c1cccc(S(=O)(=O)N2CCCC2)c1 | -9.91%
30 | CN1CCN(Cc2nc(-c3cccs3)no2)CC1c1ccccc1 (stereo not shown) | 7.35%
31 | CN=C(Nc1ccc(C(=O)OC)cc1)SC1CC(=O)N(c2ccccc2F)C1=O (stereo not shown) | 9.15%
32 | Cn1c(Cc2csc(N)n2)nnc1SCC(=O)NCc1ccccc1 | 8.74%
33 | CC(=O)Oc1ccc(C)cc1-n1nc2ccccc2n1 | 12.2%
34 | COC(=O)c1ccccc1S(=O)(=O)N1CCC(C(=O)NC2CCCCC2)CC1 | 6.59%
35 | c1ccc(Oc2cccc(Oc3ccccc3)n2)cc1 | 19.4%
36 | COc1ccc(S(=O)(=O)n2nc(-c3ccc(Cl)cc3)cc2N)cc1 | 7.28%
37 | Cc1cccc(NC(=O)COC(=O)c2cc3ccccc3oc2=O)c1 | 2.1%
38 | [O-][n+]1ccc(OCc2ccccc2)cc1 | 5%
39 | CN(C)c1ccc(S(=O)(=O)N2CCCCC2)cc1NC(=O)CCNC(=O)c1ccc(Cl)cc1 | -3.82%
40 | Cc1ccccc1N(CC(=O)Nc1ccccc1C(=O)O)S(C)(=O)=O | 10.5%

Row | Structure (SMILES) | hERG current change (%, negative = inhibition) at 1uM
41 | CCN(CC)S(=O)(=O)c1ccc(N2CCOCC2)c(NC(=O)c2ccc3ccccc3c2)c1 | 17%
42 | Cc1[nH]c2ccccc2c1C(=O)C(=O)Nc1ccc2c(c1)OCO2 | 16.2%
43 | O=C(NCCCN1CCCC1)c1ccc2c(c1)N(Cc1ccccc1F)C(=O)c1ccccc1S2(=O)=O | 14.4%
44 | O=C(COC(=O)/C=C/c1cn(-c2ccccc2)nc1-c1cccnc1)Nc1ccc(Cl)cc1Cl | 3.67%
45 | ClCCOCOCCCl | 15.3%
46 | OCCNc1ncnc2c1ncn2Cc1ccccc1 | -5.06%
47 | Cc1ccc(NC(=O)Cn2ncc3ccccc32)c(Cl)c1 | 12.3%
48 | COC(=O)C1=C(c2cccc(OC)c2OC)C[C@@H]2CC[C@H]1N2C(=O)NCCNC(C)=O | 10.2%
49 | COc1ccc(C2=NNC(c3cccnc3)=Nc3ccccc32)cc1 | -1.11%
50 | Cc1nn(-c2ccccc2)c2sc(C(=O)OCN3C(=O)c4ccccc4C3=O)cc12 | 0.937%
51 | Cc1ccc(C(=O)NCCC(=O)N2CCC3(CC2)NCCc2[nH]cnc23)cc1 | 4.25%
52 | CCOc1ccc(OCc2ccc(C(=O)N(CC)CC)cc2)cc1 | 12%
53 | CCC(CC)C(=O)Nc1ccccc1NC(C)=O | 13.3%
54 | CS(=O)(=O)c1ccc(Cl)c(NC(=O)COC(=O)c2ccc(-n3cnnn3)cc2)c1 | 7.31%
55 | S=c1[nH]nc(Cc2cccc3ccccc23)o1 | 15.1%
56 | Nc1nc2c(Cl)cc(Cl)cc2s1 | 13.8%
57 | CC1(c2nnc(-c3cccc(Cl)c3)o2)CC(c2cccc(F)c2)=NO1 (stereo not shown) | 11.9%
58 | O=C(NC(=S)Nc1cccnc1)c1ccccc1 | 12.9%
